# Assay results published in PubChem BioAssay AID652104 (National Center for Advancing Translational Sciences (NCATS), 2013).
# About 7,200 (1.8%) of roughly 410,000 compounds were called active. Inconclusive results, whose numbers are uncertain, are shown with a selection of clear calls. Calls come from the whole dose curve; as a rule, active = well fitted activation curve with a large enough effect; inconclusive = small, poorly fitted or top-dose-only effect, or another doubt; inactive = no such curve, though single readings can be large or run the other way. No potency is given beside an inconclusive call; the fits are too rough.
# Experiment: qHTS of TDP-43 Inhibitors; note: nearly all actives have a fitted effect of over 50% in size
# Conditions: TDP-43 expressing yeast growth rescue, BacTiter-Glo, 24 h; series mostly up to 46.1 µM
# Summary of the method: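 Readout is BacTiter-Glo luminescence of cell growth, so inhibitors register as activators. TDP-43-expressing yeast at OD600=0.02 in galactose medium, after raffinose pregrowth to mid-log, were incubated with compound for 24 hr at 30 deg C.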
# Potency is the fitted concentration of half-maximal effect; tags give direction and shape of the fitted curve.
row,Compound,Potency
1,CCc1ccc(OCC(=O)N(Cc2ccco2)Cc2ccco2)cc1,inactive
2,O=C(CSc1ncn(-c2ccccc2)n1)Nc1nc2c(s1)CCCC2,"inconclusive [activator, single point]"
3,COc1ccc(-c2nn3c(-c4ccc(C)cc4)nnc3c3ccccc23)cc1,inactive
4,COc1cccc(CN2C(=O)c3ccccc3Sc3ccc(C(=O)NCCc4ccc(Cl)cc4)cc32)c1,inactive
5,CCOC(=O)c1sc(=S)n(-c2ccc(Cl)cc2)c1C,active: 25.1 µM
6,COc1ccc(C2=Nn3c(nc4sc(C(=O)Nc5cccc(C)c5)c(C)c4c3=O)SC2)cc1,inactive
7,COc1cccc(-n2c(SCC(=O)N3CCCCC3)nc3c([nH]c4ccccc43)c2=O)c1,"inconclusive [activator, full curve, poor fit]"
8,CN1C(=O)/C(=C/c2ccccc2OCc2ccccc2)NC1=S,"inconclusive [activator, partial curve]"
9,Cc1ccc(NC(=O)Cn2c(=O)n(CCC(=O)NCCc3ccccc3)c(=O)c3ccccc32)cc1,"inconclusive [activator, full curve, poor fit]"
10,Cc1ccc(NC(=O)C2COc3ccccc3O2)c(C)c1 (stereo unspecified),active: 11.2 µM
11,CC(=O)Nc1ccc(NC(=O)C(Cc2ccccc2)N2Cc3ccccc3C2=O)cc1 (stereo unspecified),"inconclusive [activator, full curve, poor fit]"
12,Cc1cccc(N2CCN(C(=O)c3c(C)oc4nc(C)nc(N5CCCC5)c34)CC2C)c1 (stereo unspecified),inactive
13,COc1ccc(C(=O)/C=C2/C(=O)Nc3ccccc32)cc1,active: 2.82 µM
14,COc1ccccc1C(=O)OCC(=O)N1CCC(Cc2ccccc2)CC1,"inconclusive [activator, partial curve, poor fit]"
15,CC(C)(C)C(=O)NC(=S)NNC(=O)C(c1ccccc1)c1ccccc1,"inconclusive [activator, single point]"
16,CN(C)C(=O)c1cccc(-c2cnc3c(NC=O)cc(-c4ccccc4Cl)cn23)c1,"inconclusive [activator, single point]"
17,O=C(Nc1cccc(F)c1)c1ccc2c(c1)OCO2,inactive
18,O=C(CCc1ccccc1)NCCc1csc(-c2cccc(F)c2)n1,"inconclusive [activator, single point]"
19,CC(NC(=O)c1c(F)cccc1Cl)c1ccc(-n2ccnc2)cc1 (stereo unspecified),inactive
20,Cc1cc(C)c2c(-n3cccc3)c(C(=O)NCCCN3CCCCC3)sc2n1,inactive
21,Cc1ccc(C(=O)NC2CC3CCC(C2)N3C)cc1 (stereo unspecified),inactive
22,COc1cccc(C(=O)NNC2OC(CO)C(O)C2O)c1 (stereo unspecified),"inconclusive [activator, partial curve]"
23,Cn1c(=NC(=O)CCS(=O)(=O)c2ccccc2)sc2cc(F)ccc21,"inconclusive [activator, partial curve]"

row,Compound,Potency
1,O=C1c2c(-c3ccc(Br)cc3)noc2CCN1Cc1cn(Cc2ccccc2)nn1,"inconclusive [activator, partial curve]"
2,COc1cc(-c2nc(-c3ccccc3)c(-c3cccs3)[nH]2)cc(OC)c1O,"inconclusive [activator, partial curve]"
3,COC(=O)[C@@]1(Cc2ccc(F)cc2)[C@H]2c3cc(C(=O)N4CCCC4)n(Cc4ccc(S(C)(=O)=O)cc4)c3C[C@H]2CN1C(=O)c1ccccc1,"inconclusive [activator, partial curve]"
4,O=C1CN(C(=O)COc2ccc([N+](=O)[O-])cc2Cl)c2ccccc2N1,inactive
5,COc1ccc(-c2nn(C)c3sc(C(=O)N4CCN(c5ccccc5F)CC4)cc23)cc1OC,active: 20 µM
6,Cc1ccc(-n2c(SCC(=O)N3CC(=O)Nc4ccccc43)nc3ccccc3c2=O)cc1C,"inconclusive [activator, partial curve]"
7,COc1ccc(NC(=O)c2csc3c2CCCC3)cc1,inactive
8,Cc1ccccc1OCCSc1nc(C)c(Cc2ccccc2)c(=O)[nH]1,"inconclusive [activator, partial curve, poor fit]"
9,O=C(C1CCCN(S(=O)(=O)c2ccccc2)C1)N1CCCc2ccccc21 (stereo unspecified),"inconclusive [activator, single point]"
10,CCc1ccc(NC(=O)CC2C(=O)N(c3ccccc3)C(=O)N2C(C)C)cc1 (stereo unspecified),inactive
11,Cc1nc(Nc2ccccc2)sc1C(=O)Nc1ccccc1,active: 10 µM
12,O=C(Nc1ccc(Cl)c(Cl)c1)N1CCC(c2ccccc2)C1 (stereo unspecified),active: 35.5 µM
13,CC(C)(C)N1C(=O)c2ccccc2NC(=O)C1C(=O)NCCc1ccccc1F (stereo unspecified),inactive
14,CC(C)Cc1csc(NC(=O)C(C)C)c1C(=O)O,"inconclusive [activator, partial curve]"
15,O=C(Nc1ccc(F)cc1F)c1noc2c1CCc1ccccc1-2,"inconclusive [activator, full curve, poor fit]"
16,O=C(OCC(=O)N1CCc2ccccc21)c1ccc([N+](=O)[O-])o1,"inconclusive [activator, single point]"
17,CC(C)CCNC(=O)CSCc1cnn(-c2ccccc2)c1-n1cccc1,"inconclusive [activator, partial curve]"
18,COc1cccc(C2=Nc3cccc4cccc(c34)N2)c1,"inconclusive [activator, single point]"
19,CCOC(=O)C1CCN(C(=O)c2ccc3nc(-c4ccc(OC)cc4)c(-c4ccc(OC)cc4)nc3c2)CC1,inactive
20,Oc1ccccc1/C=N/n1c(COc2ccccc2)n[nH]c1=S,"inconclusive [activator, partial curve]"
21,COc1ccccc1CCNc1ncnc2c1nnn2C,"inconclusive [activator, full curve, poor fit]"
22,Cc1cnc(C(=O)Nc2ccc(C)c(S(=O)(=O)N3CCCCCC3)c2)cn1,active: 15.8 µM
23,CC(C)(C)c1ccc(C(=O)OCC(=O)NCc2ccco2)cc1,"inconclusive [activator, partial curve]"
